Results as given in publication PMC4336329 (PLoS ONE, 2015).
In all, about 310,000 compounds went through this assay and about 2,200 (0.71%) showed an effect of 50% or more. Effects have a minus sign here. The list shows a part of the results.

Target: human ether-à-go-go-related gene (hERG) potassium channel (human, UniProt Q12809)
Assay: primary screen, population patch clamp on CHO cells stably expressing hERG

human ether-à-go-go-related gene (hERG) potassium channel, sequence (Q12809 whole entry, looked up): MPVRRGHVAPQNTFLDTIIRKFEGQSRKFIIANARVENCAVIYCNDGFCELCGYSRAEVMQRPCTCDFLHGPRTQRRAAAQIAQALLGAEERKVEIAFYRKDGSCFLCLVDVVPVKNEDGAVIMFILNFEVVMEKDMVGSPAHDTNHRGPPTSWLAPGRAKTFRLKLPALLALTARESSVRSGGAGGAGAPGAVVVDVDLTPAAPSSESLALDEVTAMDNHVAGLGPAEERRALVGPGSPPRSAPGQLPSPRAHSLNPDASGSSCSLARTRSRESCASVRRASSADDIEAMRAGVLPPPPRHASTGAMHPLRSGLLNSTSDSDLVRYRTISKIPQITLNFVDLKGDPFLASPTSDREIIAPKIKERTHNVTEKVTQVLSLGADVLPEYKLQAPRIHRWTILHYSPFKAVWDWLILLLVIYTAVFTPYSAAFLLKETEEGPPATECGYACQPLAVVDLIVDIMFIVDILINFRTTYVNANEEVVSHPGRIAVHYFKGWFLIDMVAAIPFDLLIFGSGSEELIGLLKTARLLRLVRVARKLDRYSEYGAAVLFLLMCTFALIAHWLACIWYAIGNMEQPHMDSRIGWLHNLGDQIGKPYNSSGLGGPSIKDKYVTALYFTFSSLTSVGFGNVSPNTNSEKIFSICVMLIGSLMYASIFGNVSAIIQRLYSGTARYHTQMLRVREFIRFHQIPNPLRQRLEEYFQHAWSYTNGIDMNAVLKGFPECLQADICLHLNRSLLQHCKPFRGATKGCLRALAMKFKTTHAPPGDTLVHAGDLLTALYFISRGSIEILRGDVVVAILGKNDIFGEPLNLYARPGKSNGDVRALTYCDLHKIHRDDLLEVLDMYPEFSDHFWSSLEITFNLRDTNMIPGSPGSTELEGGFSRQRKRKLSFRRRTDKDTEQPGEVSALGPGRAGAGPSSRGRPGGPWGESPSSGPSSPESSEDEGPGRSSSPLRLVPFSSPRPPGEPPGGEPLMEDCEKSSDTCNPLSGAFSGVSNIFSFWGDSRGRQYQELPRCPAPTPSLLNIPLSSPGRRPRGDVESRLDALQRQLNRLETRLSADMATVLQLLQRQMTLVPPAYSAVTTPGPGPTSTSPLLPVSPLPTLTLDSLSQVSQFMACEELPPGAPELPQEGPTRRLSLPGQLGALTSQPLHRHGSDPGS

Structure (SMILES) | hERG current change (%, negative = inhibition) at 1uM [%]
O=C(Cc1coc2cc3c(cc12)CCC3)NC1CCCCCCC1 | 0.112
CCCCn1c(=O)c(C(=O)Nc2ccccn2)c(O)c2ccccc21 | 6.62
CCC(=O)N(CCc1ccccc1)Cc1cc2cc(OC)ccc2[nH]c1=O | -3.89
CCN(CC)S(=O)(=O)c1cc(NC(=O)COC(=O)C2CCC2)ccc1C | 8.13
Cc1cc(OC(=O)c2ccccc2[N+](=O)[O-])c([N+](=O)[O-])c(=O)[nH]1 | 10
CC(C(=O)OCC(=O)N1CCN(c2ccccc2)CC1)N1C(=O)c2ccccc2C1=O (centres unmarked) | 15.1
O=C(Nc1ccc(Cl)cn1)Nc1cccs1 | -1.12
CCCNC(=O)c1ccc(Cl)c(Cl)c1 | 4.26
Cc1cccc(C)c1Oc1nc(-c2ccccc2)ncc1S(=O)(=O)c1ccccc1 | 8.29
CC(=O)Oc1ccc2c(=O)c(Oc3ccccc3[N+](=O)[O-])coc2c1 | 11.7
c1ccc(Oc2ccc3ccccc3n2)cc1 | -2.37
COc1ccc(-c2csc(/N=C/N(C)C)n2)cc1OC | -0.928
COc1ccc(-n2nc3c(c2NC(=O)c2ccc(S(=O)(=O)N4CCOCC4)cc2)CS(=O)C3)cc1 (centres unmarked) | 6.33
COc1ccc(CSc2nc(C)cc(C)c2C#N)cc1 | 19.6
Cc1cccc(C(CC(=O)N2CCCCC2)c2ccccc2)c1O (centres unmarked) | 6.38
COc1ccc(C(OC(=O)c2ccco2)C(=O)NC(C)(C)C)cc1 (centres unmarked) | 18.2
O=c1[nH]c2cc(C(F)(F)F)ccc2n1-c1cc(C(F)(F)F)ccc1O | 8.01
CC(C)N(CCc1ccncc1)C(=S)Nc1cccc(Cl)c1 | -23.2
CN(c1ccccc1)S(=O)(=O)c1cccc(C(=O)OCC(=O)Nc2ccc3[nH]c(=O)[nH]c3c2)c1 | 21.1

Structure (SMILES) | hERG current change (%, negative = inhibition) at 1uM [%]
COc1ccc(OCCCC(=O)NC(C)c2ccccc2)cc1 (centres unmarked) | 8.81
O=C(COC(=O)CCN1C(=O)C2CC=CCC2C1=O)Nc1ccc(Cl)cc1F (centres unmarked) | -2.89
COCCNc1nc2sc3c(c2c(=O)n1Cc1ccco1)CCCCC3 | 15.7
CC(C)c1ccc(NC(=S)NC2CCN(Cc3ccccc3)CC2)cc1 | 5.77
CCCn1c(C2CC(=O)N(c3ccc(C)cc3)C2)nc2ccccc21 (centres unmarked) | -4.12
Cc1cc(C(=O)COC(=O)c2ccc(O)cc2)c(C)n1-c1ccccc1F | 13.2
O=C(Oc1ccc([N+](=O)[O-])cc1)c1ccc(Cl)c(S(=O)(=O)N2CCCCC2)c1 | 14.5
Cc1n[nH]c(C)c1N1C(=O)c2cccc3cc(Br)cc(c23)C1=O | 14.7
CC(C)NNC(=O)c1ccncc1.O=P(O)(O)O | 21.7
Br.CC(C)(C)C(=O)CN1C2=NCCCN2c2ccccc21 | -46.9
Cc1ccc(N(C(=O)CNC(=O)c2ccco2)C(C(=O)NC2CCCCC2)c2cccnc2)cc1C (centres unmarked) | 13.6
CN(Cc1nc2ccccc2c(=O)[nH]1)c1ccccc1 | 8.15
CCN(CC(=O)Nc1ccc(NC(C)=O)cc1)C(=O)/C=C/c1ccc([N+](=O)[O-])cc1 | 6.94
CCOC(=O)CNc1nc(Cl)nc(NC(C)(C)C)n1 | 17.4
CCc1ccc(OCC(=O)N/N=C(\C)c2ccccc2OC(F)F)cc1 | 16.5
O=S(=O)(Cc1cc(-c2ccc(Cl)cc2)no1)c1ccccc1 | 3.33
CCn1nccc1C(=O)Nc1ccc(S(=O)(=O)NC23CC4CC(CC(C4)C2)C3)cc1 | 6.38
CCn1cc(C(=O)N[C@@H](CCSC)C(=O)NCCOC)c(=O)c2cc3c(cc21)OCO3 | 9.43
COc1ccc(S(=O)(=O)Nc2nnc(CC(C)(C)C)s2)cc1 | 10.6

Structure (SMILES) | hERG current change (%, negative = inhibition) at 1uM [%]
Cc1c(C(=O)N2CCN(CCc3ccccc3)CC2)oc2ccccc12 | -36
CCOCCCNC(=O)c1c[nH]c2ccc(S(=O)(=O)Nc3cccc(OC)c3)cc2c1=O | 18.4
Cc1ccc(NC(=O)CSc2nc3ncc(Cl)cc3[nH]2)c(C)c1 | 13.7
COc1ccccc1NS(=O)(=O)c1ccc(NC(=O)N2CCCCC2)cc1 | 14.1
Cc1cccc(C)c1NC(=O)COC(=O)c1cc(=O)c2ccccc2o1 | 10.2
CCOC(=O)CC1(NC(=O)C2CCC(=O)N(C3CC3)C2)CCCCC1 (centres unmarked) | 12.7
Cn1c(C(=O)N2CCC(C(N)=O)CC2)cc2cc(Cl)ccc21 | 6.38
CCN(C(=O)CSc1nnc(-c2ccco2)n1CC)c1c(N)n(Cc2ccccc2)c(=O)[nH]c1=O | 7.69
COC(=O)c1cccc(NC(=O)c2cccc([N+](=O)[O-])c2)c1 | 7.9
CCn1c(CNc2ccc(F)cc2)nnc1SCC#N | 11.3
O=C(Cc1ccccc1)Nc1ccc(NC(=O)c2ccco2)cc1Cl | 6.66
Clc1ccc(OCCCCN2CCCCC2)cc1.O=C(O)C(=O)O | -37.4
Cc1nc(-c2c(C(F)(F)F)noc2-c2ccc(O)cc2O)cs1 | 7.28
COc1cc(C2/C(=C(\O)c3ccc4c(c3)CC(C)O4)C(=O)C(=O)N2CCN2CCOCC2)cc(OC)c1OC (centres unmarked) | -1.31
O=C(Cc1cn2ccsc2n1)Nc1ccccc1Oc1ccccc1 | -2.4
COc1ccccc1OCC(O)CN1C(=O)NC(C)(C)C1=O (centres unmarked) | 15.3
O=C1CCC(O)CCN1CCSc1ccccc1 (centres unmarked) | 8.18
Cn1c(CNc2ccc(Cl)cc2)nnc1SCc1ccccc1 | 16.1
